Test results from the supplement of paper PMC8728848.
Some of the results follow.

Legend:
Assay in all cases: glycan array binding signal (z-score within array); higher = stronger binding
Conditions in all cases: glycan notation: IUPAC condensed, linker removed
[1] = target: Fuc(a1-2)Gal(b1-4)[Fuc(a1-3)]GlcNAc
Procedure, shortened: (§1)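 The binding signal is a Z-score computed within each array. Data were drawn from 3228 arrays in the Consortium for Functional Glycomics database, restricted to those with a known protein sequence. Scores were averaged over arrays of the same protein sequence at different concentrations or buffers, and over linkers, and negative values can be taken as non-binding.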

[2] = target: Fuc(a1-2)Gal(b1-4)[Fuc(a1-3)]GlcNAc(b1-2)Man(a1-3)[Fuc(a1-2)Gal(b1-4)[Fuc(a1-3)]GlcNAc(b1-2)Man(a1-6)]Man(b1-4)GlcNAc(b1-4)[Fuc(a1-6)]GlcNAc
Procedure, shortened: as §1

[3] = target: Fuc(a1-2)Gal(b1-4)[Fuc(a1-3)]GlcNAc(b1-2)[Fuc(a1-2)Gal(b1-4)[Fuc(a1-3)]GlcNAc(b1-4)]Man(a1-3)[Fuc(a1-2)Gal(b1-4)[Fuc(a1-3)]GlcNAc(b1-2)Man(a1-6)]Man(b1-4)GlcNAc(b1-4)GlcNAc
Procedure, shortened: as §1

[4] = target: Fuc(a1-2)Gal(b1-4)[Fuc(a1-3)]GlcNAc(b1-3)Gal(b1-4)[Fuc(a1-3)]GlcNAc
Procedure, shortened: as §1

[5] = target: Fuc(a1-2)Gal(b1-4)[Fuc(a1-3)]GlcNAc(b1-3)Gal(b1-4)[Fuc(a1-3)]GlcNAc(b1-3)Gal(b1-4)[Fuc(a1-3)]GlcNAc
Procedure, shortened: as §1

[6] = target: Fuc(a1-2)Gal(b1-4)[Fuc(a1-3)]GlcNAc(b1-3)GalNAc
Procedure, shortened: as §1

[7] = target: Fuc(a1-2)Gal(b1-4)[Fuc(a1-3)]GlcNAc(b1-3)[Neu5Ac(a2-6)Gal(b1-4)GlcNAc(b1-6)]Gal(b1-4)Glc
Procedure, shortened: as §1

[8] = target: Fuc(a1-2)Gal3S(b1-4)GlcNAc
Procedure, shortened: as §1

[9] = target: Fuc(a1-2)Gal6S(b1-3)GlcNAc
Procedure, shortened: as §1

[10] = target: Fuc(a1-2)Gal6S(b1-3)GlcNAc6S
Procedure, shortened: as §1

Fuc(a1-2)Gal6S(b1-4)Glc = target: Fuc(a1-2)Gal6S(b1-4)Glc
Procedure, shortened: as §1

[11] = target: Fuc(a1-2)Gal6S(b1-4)Glc6S
Procedure, shortened: as §1

Fuc(a1-2)[Gal(a1-3)]Gal = target: Fuc(a1-2)[Gal(a1-3)]Gal
Procedure, shortened: as §1

[12] = target: Fuc(a1-2)[Gal(a1-3)]Gal(b1-3)GalNAc
Procedure, shortened: as §1

[13] = target: Fuc(a1-2)[Gal(a1-3)]Gal(b1-3)GalNAc(b1-3)Gal(a1-4)Gal(b1-4)Glc
Procedure, shortened: as §1

[14] = target: Fuc(a1-2)[Gal(a1-3)]Gal(b1-3)GlcNAc
Procedure, shortened: as §1

[15] = target: Fuc(a1-2)[Gal(a1-3)]Gal(b1-3)GlcNAc(b1-2)Man(a1-3)[Fuc(a1-2)[Gal(a1-3)]Gal(b1-3)GlcNAc(b1-2)Man(a1-6)]Man(b1-4)GlcNAc(b1-4)GlcNAc
Procedure, shortened: as §1

[16] = target: Fuc(a1-2)[Gal(a1-3)]Gal(b1-3)GlcNAc(b1-2)Man(a1-3)[Fuc(a1-2)[Gal(a1-3)]Gal(b1-3)GlcNAc(b1-2)Man(a1-6)]Man(b1-4)GlcNAc(b1-4)[Fuc(a1-6)]GlcNAc
Procedure, shortened: as §1

[17] = target: Fuc(a1-2)[Gal(a1-3)]Gal(b1-3)GlcNAc(b1-3)GalNAc
Procedure, shortened: as §1

[18] = target: Fuc(a1-2)[Gal(a1-3)]Gal(b1-3)GlcNAc(b1-6)GalNAc
Procedure, shortened: as §1

[19] = target: Fuc(a1-2)[Gal(a1-3)]Gal(b1-4)Glc
Procedure, shortened: as §1

[20] = target: Fuc(a1-2)[Gal(a1-3)]Gal(b1-4)GlcNAc
Procedure, shortened: as §1

[21] = target: Fuc(a1-2)[Gal(a1-3)]Gal(b1-4)GlcNAc(b1-2)Man
Procedure, shortened: as §1

[22] = target: Fuc(a1-2)[Gal(a1-3)]Gal(b1-4)GlcNAc(b1-2)Man(a1-3)[Fuc(a1-2)[Gal(a1-3)]Gal(b1-4)GlcNAc(b1-2)Man(a1-6)]Man(b1-4)GlcNAc(b1-4)GlcNAc
Procedure, shortened: as §1

[23] = target: Fuc(a1-2)[Gal(a1-3)]Gal(b1-4)GlcNAc(b1-2)Man(a1-3)[Fuc(a1-2)[Gal(a1-3)]Gal(b1-4)GlcNAc(b1-2)Man(a1-6)]Man(b1-4)GlcNAc(b1-4)[Fuc(a1-6)]GlcNAc
Procedure, shortened: as §1

[24] = target: Fuc(a1-2)[Gal(a1-3)]Gal(b1-4)GlcNAc(b1-3)GalNAc
Procedure, shortened: as §1

[25] = target: Fuc(a1-2)[Gal(a1-3)]Gal(b1-4)GlcNAc(b1-3)[Fuc(a1-2)[Gal(a1-3)]Gal(b1-4)GlcNAc(b1-6)]GalNAc
Procedure, shortened: as §1

[26] = target: Fuc(a1-2)[Gal(a1-3)]Gal(b1-4)GlcNAc(b1-6)GalNAc
Procedure, shortened: as §1

[27] = target: Fuc(a1-2)[Gal(a1-3)]Gal(b1-4)[Fuc(a1-3)]Glc
Procedure, shortened: as §1

[28] = target: Fuc(a1-2)[Gal(a1-3)]Gal(b1-4)[Fuc(a1-3)]GlcNAc
Procedure, shortened: as §1

[29] = target: Fuc(a1-2)[Gal(a1-3)]Gal(b1-4)[Fuc(a1-3)]GlcNAc(b1-3)GalNAc
Procedure, shortened: as §1

[30] = target: Fuc(a1-2)[Gal(a1-4)]Gal(b1-4)GlcNAc
Procedure, shortened: as §1

[31] = target: Fuc(a1-2)[GalNAc(a1-3)]Gal
Procedure, shortened: as §1

[32] = target: Fuc(a1-2)[GalNAc(a1-3)]Gal(b1-3)GalNAc(a1-3)[Fuc(a1-2)]Gal(b1-4)GlcNAc
Procedure, shortened: as §1

[33] = target: Fuc(a1-2)[GalNAc(a1-3)]Gal(b1-3)GalNAc(b1-3)Gal(a1-4)Gal(b1-4)Glc
Procedure, shortened: as §1

[34] = target: Fuc(a1-2)[GalNAc(a1-3)]Gal(b1-3)GlcNAc
Procedure, shortened: as §1

[35] = target: Fuc(a1-2)[GalNAc(a1-3)]Gal(b1-3)GlcNAc(b1-2)Man(a1-3)[Fuc(a1-2)[GalNAc(a1-3)]Gal(b1-3)GlcNAc(b1-2)Man(a1-6)]Man(b1-4)GlcNAc(b1-4)GlcNAc
Procedure, shortened: as §1

[36] = target: Fuc(a1-2)[GalNAc(a1-3)]Gal(b1-3)GlcNAc(b1-2)Man(a1-3)[Fuc(a1-2)[GalNAc(a1-3)]Gal(b1-3)GlcNAc(b1-2)Man(a1-6)]Man(b1-4)GlcNAc(b1-4)[Fuc(a1-6)]GlcNAc
Procedure, shortened: as §1

B1: Als3-41 (Candida albicans) (protein)
chain: KTITGVFNSFNSLTWSNAATYNYKGPGTPTWNAVLGWSLDGTSASPGDTFTLNMPCVFKFTTSQTSVDLTAHGVKYATCQFQAGEEFMTFSTLTCTVSNTLTPSIKALGTVTLPLAFNVGGTGSSVDLEDSKCFTAGTNTVTFNDGGKKISINVDFERSNVDPKGYLTDSRVIPSLNKVSTLFVAPQCANGYTSGTMGFANTYGDVQIDCSNIHVGITKGLNDWNYPVSSESFSYTKTCSSNGIFITYKNVPAGYRPFVDAYISATDVNSYTLSYANEYTCAGGYWQRAPFTLRWTGYRNSDAGSNGIVIVATTRTVTDSTTAVTTLPFDPNRDKTKTIEILKPIPTTTITTSYVGVTTSYLTKTAPIGETATVIVD
glycan array binding signal (z-score) [1]: -0.148
glycan array binding signal (z-score) [2]: 0.333
glycan array binding signal (z-score) [3]: 0.707
glycan array binding signal (z-score) [4]: -0.291
glycan array binding signal (z-score) [5]: -0.37
glycan array binding signal (z-score) [6]: 0.462
glycan array binding signal (z-score) [7]: -0.377
glycan array binding signal (z-score) [8]: -0.305
glycan array binding signal (z-score) [9]: -0.047
glycan array binding signal (z-score) [10]: 0.433
glycan array binding signal (z-score) (Fuc(a1-2)Gal6S(b1-4)Glc): -0.235
glycan array binding signal (z-score) [11]: -0.216
glycan array binding signal (z-score) (Fuc(a1-2)[Gal(a1-3)]Gal): -0.266
glycan array binding signal (z-score) [12]: -0.028
glycan array binding signal (z-score) [13]: -0.1
glycan array binding signal (z-score) [14]: -0.197
glycan array binding signal (z-score) [15]: -0.265
glycan array binding signal (z-score) [16]: -0.313
glycan array binding signal (z-score) [17]: -0.174
glycan array binding signal (z-score) [18]: -0.078
glycan array binding signal (z-score) [19]: -0.193
glycan array binding signal (z-score) [20]: -0.296
glycan array binding signal (z-score) [21]: -0.195
glycan array binding signal (z-score) [22]: -0.283
glycan array binding signal (z-score) [23]: -0.325
glycan array binding signal (z-score) [24]: -0.244
glycan array binding signal (z-score) [25]: 1.91
glycan array binding signal (z-score) [26]: -0.229
glycan array binding signal (z-score) [27]: -0.294
glycan array binding signal (z-score) [28]: -0.105
glycan array binding signal (z-score) [29]: -0.129
glycan array binding signal (z-score) [30]: -0.135
glycan array binding signal (z-score) [31]: -0.177
glycan array binding signal (z-score) [32]: -0.283
glycan array binding signal (z-score) [33]: 0.499
glycan array binding signal (z-score) [34]: 0.28
glycan array binding signal (z-score) [35]: -0.203
glycan array binding signal (z-score) [36]: -0.264
